What was measured:
cynomolgus monkey CCR6 [1] = molecular target: T1, cynomolgus monkey CCR6 (cynomolgus monkey (Macaca Fascicularis)); assay: flow cytometry on cells expressing the target, IgG1 titration, anti-human Fc-PE
T1 construct: whole, on cells; gene derived from a total RNA library; also called CCR6 cyno; cyno CCR6

[2] = molecular target: T2, human chemokine receptor CCR6 (human, UniProt P51684 1-374); assay: as above
T2 construct: whole, on cells; gene was synthesized (codon-optimized); a C-terminal tag may be present on the expressed protein; also called CCR6 human; human CCR6
T2 sequence (looked up): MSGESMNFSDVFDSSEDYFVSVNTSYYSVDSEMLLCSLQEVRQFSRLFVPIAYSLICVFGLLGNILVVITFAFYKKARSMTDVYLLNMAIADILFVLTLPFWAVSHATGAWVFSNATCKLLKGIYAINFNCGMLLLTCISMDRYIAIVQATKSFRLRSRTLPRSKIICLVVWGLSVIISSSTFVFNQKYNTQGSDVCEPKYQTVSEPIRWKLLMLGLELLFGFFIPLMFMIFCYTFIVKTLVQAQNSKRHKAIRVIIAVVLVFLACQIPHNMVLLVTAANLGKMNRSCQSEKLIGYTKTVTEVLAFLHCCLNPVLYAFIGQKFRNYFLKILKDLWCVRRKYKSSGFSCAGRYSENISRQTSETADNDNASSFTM

mouse CCR6 [3] = molecular target: T3, mouse CCR6 (mouse, UniProt O54689 1-367); assay: as above
T3 construct: whole, on cells; gene derived from a cDNA library; also called CCR6 mouse
T3 sequence (looked up): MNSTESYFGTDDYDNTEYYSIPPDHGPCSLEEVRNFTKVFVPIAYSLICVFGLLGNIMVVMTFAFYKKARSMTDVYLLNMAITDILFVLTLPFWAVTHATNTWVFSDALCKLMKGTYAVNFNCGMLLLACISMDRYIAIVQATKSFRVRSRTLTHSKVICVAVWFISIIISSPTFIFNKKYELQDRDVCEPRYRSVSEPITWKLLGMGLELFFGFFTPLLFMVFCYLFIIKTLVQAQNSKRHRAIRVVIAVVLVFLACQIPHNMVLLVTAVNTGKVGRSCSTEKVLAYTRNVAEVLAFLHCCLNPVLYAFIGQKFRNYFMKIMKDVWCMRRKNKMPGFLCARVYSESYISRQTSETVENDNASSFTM

cynomolgus monkey CCR6 [4] = molecular target: T1, cynomolgus monkey CCR6; assay: flow cytometry on cells expressing the target, IgG1 titration (repeat of Table 2)
[5] = molecular target: T2, human chemokine receptor CCR6; assay: as above
mouse CCR6 [6] = molecular target: T3, mouse CCR6; assay: as above

EC50 (cynomolgus monkey CCR6 [1]): 3.2 nM
EC50 [2]: 2.8 nM
EC50 (mouse CCR6 [3]): 1.8 nM
EC50 (cynomolgus monkey CCR6 [4]): 3.2 nM
EC50 [5]: 2.8 nM
EC50 (mouse CCR6 [6]): 1.8 nM
B1: MSM-R623 IgG1 (antibody)
heavy: EVQLLESGGGLVQPGGSLRLSCAASGFTFSNYYIHWVRQAPGKGLEWVSTIGSSNGTTYYADSVKGRFTISRDNSKNTLYLQMNSLRAEDTAVYYCARGRAVKLAYYSGFDYWGQGTLVTVSSASTKGPSVFPLAPSSKSTSGGTAALGCLVKDYFPEPVTVSWNSGALTSGVHTFPAVLQSSGLYSLSSVVTVPSSSLGTQTYICNVNHKPSNTKVDKRV[sequence of human IgG1 Fc not given]
light: [sequence of about 100 residues not given][sequence of about 120 residues not given]
notes: Fully human IgG1

Reference: patent US20150337037A1 (MSM PROTEIN TECHNOLOGIES, published 2015)
